# According to the supplement of paper PMC12355420:
# Where a name gives a salt, the structure may show the parent alone. Some of the results follow. No stated cut-off is given here; in the data, active = 0.5 or less and inactive = the rest. Single values are uncertain, as repeats are few or missing.
# Test system: HeLa VPS33A R498W KI + HA-SDC1-FLAG
# Assay: relative GAG core protein HA-SDC1 amount per cell number vs DMSO (fraction of DMSO); HeLa model of a glycosaminoglycan (GAG) storage disease; KI is knock-in and KO knock-out; SDC1 is syndecan 1; higher = more SDC1 (GAG core protein)
# Conditions: 50 µM; 24 h
# 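Further: HA-SDC1 level read out by In-Cell Western staining with an anti-HA antibody against the N-terminal tag, screening FDA-approved library drugs.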
row,SMILES,relative GAG core protein HA-SDC1 amount per cell number
1,C[N+](C)(C)CCOP(=O)(O)OP(=O)([O-])OC[C@H]1O[C@@H](n2ccc(N)nc2=O)[C@H](O)[C@@H]1O [Citicoline (sodium salt)],inactive: 1.04
2,"O=c1ccc2cc(O)c(O)cc2o1 [6,7-Dihydroxycoumarin]",inactive: 0.981
3,COC(=O)C1=C(C)NC(C)=C(C(=O)OC(C)C)C1c1cccc2nonc12 (centres undefined) [Isradipine (Dynacirc)],active: 0.292
4,COc1cc(N)c(Cl)cc1C(=O)NC1CCN(CCCOc2ccc(F)cc2)CC1OC (centres undefined) [Cisapride],inactive: 1.12
5,COc1ccc(CN(CCN(C)C)c2ccccn2)cc1 [Mepyramine maleate],inactive: 0.78
6,C[C@H]1Oc2cc(cnc2N)-c2c(nn(C)c2C#N)CN(C)C(=O)c2ccc(F)cc21,active: 0.477
7,CC[C@@H]([C@H](C)O)n1ncn(-c2ccc(N3CCN(c4ccc(OC[C@@H]5CO[C@@](Cn6cncn6)(c6ccc(F)cc6F)C5)cc4)CC3)cc2)c1=O [Posaconazole],inactive: 1.24
8,COc1cccc(-c2ccc(NC(=O)C3=C(C(=O)O)CCC3)c(F)c2)c1 [Vidofludimus],inactive: 0.545
9,CCC(=O)NCC[C@@H]1CCc2ccc3c(c21)CCO3 [Ramelteon],inactive: 1.05
10,O=C1OCCN1/N=C/c1ccc([N+](=O)[O-])o1 [Furazolidone],inactive: 0.524
11,CCC[C@H](N[C@@H](C)C(=O)N1[C@H](C(=O)O)C[C@@H]2CCCC[C@@H]21)C(=O)OCC [Perindopril Erbumine],inactive: 1.58
12,Cc1ccc(/C=C2/C(=O)C3(C)CCC2C3(C)C)cc1 (centres undefined) [4-Methylbenzylidene camphor],inactive: 0.791
13,CC[C@]1(O)C[C@H]2CN(CCc3c([nH]c4ccccc34)[C@@](C(=O)OC)(c3cc4c(cc3OC)N(C=O)[C@H]3[C@@](O)(C(=O)OC)[C@H](OC(C)=O)[C@]5(CC)C=CCN6CC[C@]43[C@@H]65)C2)C1 [Vincristine],active: 0.412
14,CNC(=O)[C@H](Cc1ccccc1)NC(=O)[C@H](CC(C)C)[C@H](CSc1cccs1)C(=O)NO [Batimastat (BB-94)],inactive: 1.36
15,CC(C)C[C@H](N)C(=O)O [L-Leucine],inactive: 0.953
16,CCC(=O)OCC(=O)[C@@]1(OC(=O)CC)[C@@H](C)C[C@H]2[C@@H]3CCC4=CC(=O)C=C[C@]4(C)[C@@]3(F)[C@@H](O)C[C@@]21C [Betamethasone Dipropionate],inactive: 0.889
17,COc1cc(C(=O)NC2CCCNC2)cc(OC)c1OC (centres undefined) [Troxipide],inactive: 0.833
18,Cc1ccsc1C(=CCCN1CCC[C@@H](C(=O)O)C1)c1sccc1C [Tiagabine],inactive: 0.928
19,CC(C)[C@H](N)C(=O)OCCOCn1cnc2c(=O)nc(N)[nH]c21 [Valaciclovir HCl],inactive: 0.82
20,COc1cc([C@@H]2c3cc4c(cc3[C@@H](O[C@@H]3O[C@@H]5CO[C@@H](c6cccs6)O[C@H]5[C@H](O)[C@H]3O)[C@H]3COC(=O)[C@H]23)OCO4)cc(OC)c1O [Teniposide],active: 0.453

row,SMILES,relative GAG core protein HA-SDC1 amount per cell number
1,Cc1cc(-n2c(=O)[nH]c(=O)n(C)c2=O)ccc1Oc1ccc(SC(F)(F)F)cc1 [Toltrazuril],inactive: 0.664
2,Nc1ccc(C(=O)O)cc1 [4-Aminobenzoic acid],inactive: 0.744
3,CO[C@H]1C[C@@H]2CC[C@@H](C)[C@@](O)(O2)C(=O)C(=O)N2CCCC[C@H]2C(=O)O[C@H]([C@H](C)C[C@@H]2CC[C@H](n3cnnn3)[C@H](OC)C2)CC(=O)[C@H](C)/C=C(\C)[C@@H](O)[C@@H](OC)C(=O)[C@H](C)C[C@H](C)/C=C/C=C/C=C/1C [Zotarolimus(ABT-578)],active: 0.481
4,NC(N)=O,inactive: 0.854
5,CCCCOC(=O)c1ccc(O)cc1 [Butylparaben],inactive: 0.642
6,Oc1ncnc2[nH]ncc12 [Allopurinol],inactive: 1.12
7,Cc1nc2c([nH]1)-c1ccccc1N(C(=O)c1ccc(NC(=O)c3ccccc3-c3ccccc3)cc1)CC2 [Conivaptan HCl],inactive: 0.627
8,CC(C)(C)NC(=O)[C@H]1CC[C@H]2[C@@H]3CC[C@H]4NC(=O)C=C[C@]4(C)[C@H]3CC[C@]12C [Finasteride],inactive: 1.03
9,Cc1c(C)c2c(c(C)c1O)CCC(C)(CCCC(C)CCCC(C)CCCC(C)C)O2 (racemic) [DL-α-Tocopherol],inactive: 0.887
10,N[C@@H](CC(=O)N1CCn2c(nnc2C(F)(F)F)C1)Cc1cc(F)c(F)cc1F [Sitagliptin],inactive: 0.809
11,CC1Cc2ccccc2N1NC(=O)c1ccc(Cl)c(S(N)(=O)=O)c1 (centres undefined) [Indapamide],inactive: 0.82
12,Cc1occc(=O)c1O [3-Hydroxy-2-methyl-4H-pyran-4-one],inactive: 0.892
13,CC(C(O)c1ccc(O)cc1)N1CCC(Cc2ccccc2)CC1 (centres undefined) [Ifenprodil Tartrate],inactive: 0.532
14,CCCOc1ccc(C(=O)OCCN(CC)CC)cc1N [Proparacaine HCl],inactive: 0.879
15,CN1C(C(=O)Nc2ccccn2)=C(O)c2sc(Cl)cc2S1(=O)=O [Lornoxicam],inactive: 0.991
16,CCCCCCCCCCC(=O)O [Undecanoic Acid],inactive: 0.778
17,CC1(C)S[C@@H]2[C@H](NC(=O)[C@H](N)c3ccccc3)C(=O)N2[C@H]1C(=O)O [Ampicillin Trihydrate],inactive: 1.24
18,O=C(O)[C@@H]1C[C@@H](O)CN1 [L-Hydroxyproline],inactive: 1.03
19,Cn1cc(C2=C(c3cccc(N)c3)C(=O)NC2=O)c2ccccc21,inactive: 0.736
